For experiment [1], the system named is CT26 allograft tumor (MSS subtype colorectal carcinoma). In words: CT26 subcutaneous tumor model, multiple doses of ABT-301 with or without avelumab. The class given is in vivo, mouse. Particulars: alone or + avelumab 200 μg IP, n=10/group. The protocol: Treatments were administered for indicated period (24 days) or until humane endpoints. Ten mice were used in each group. […] Avelumab was prepared with PBS.

Another experiment addresses T1, HDAC7 (Homo sapiens, UniProt Q8WUI4).
T1 sequence (Q8WUI4 1-952): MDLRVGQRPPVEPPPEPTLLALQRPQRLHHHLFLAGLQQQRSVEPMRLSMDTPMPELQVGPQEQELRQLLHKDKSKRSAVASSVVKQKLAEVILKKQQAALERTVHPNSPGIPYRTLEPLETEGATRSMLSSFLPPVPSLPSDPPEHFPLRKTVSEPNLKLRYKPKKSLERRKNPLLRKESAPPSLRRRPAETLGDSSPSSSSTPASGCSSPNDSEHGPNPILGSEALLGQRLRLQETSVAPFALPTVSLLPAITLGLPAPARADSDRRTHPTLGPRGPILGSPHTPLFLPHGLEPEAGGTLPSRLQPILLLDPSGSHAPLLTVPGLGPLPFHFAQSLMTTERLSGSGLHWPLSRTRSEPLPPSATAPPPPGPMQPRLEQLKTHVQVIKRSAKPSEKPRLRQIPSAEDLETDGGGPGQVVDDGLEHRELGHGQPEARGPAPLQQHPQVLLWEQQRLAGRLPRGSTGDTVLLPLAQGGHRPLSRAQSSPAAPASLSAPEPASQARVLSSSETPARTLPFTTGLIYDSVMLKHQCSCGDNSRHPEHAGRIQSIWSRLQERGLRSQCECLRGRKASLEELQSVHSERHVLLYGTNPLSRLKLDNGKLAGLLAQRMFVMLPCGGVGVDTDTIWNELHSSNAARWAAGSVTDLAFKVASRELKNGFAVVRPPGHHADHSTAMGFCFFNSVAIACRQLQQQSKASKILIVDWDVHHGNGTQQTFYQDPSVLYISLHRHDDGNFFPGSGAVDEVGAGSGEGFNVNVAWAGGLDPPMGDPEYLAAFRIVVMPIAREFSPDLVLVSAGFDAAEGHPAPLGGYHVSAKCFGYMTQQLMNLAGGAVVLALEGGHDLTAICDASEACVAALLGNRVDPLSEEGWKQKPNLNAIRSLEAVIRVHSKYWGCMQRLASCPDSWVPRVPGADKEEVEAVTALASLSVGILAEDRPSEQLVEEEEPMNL
In words: HDAC enzymatic activity assay (fluorogenic, Reaction Biology).

For another experiment, the target named is HDAC9 (Homo sapiens, UniProt Q9UKV0). The description is as above.
A further experiment deals with HDAC2 (Homo sapiens, UniProt Q92769). The description is as above.
A further experiment has as its target T2, HDAC11 (Homo sapiens, UniProt Q96DB2).
T2 sequence (Q96DB2 1-347): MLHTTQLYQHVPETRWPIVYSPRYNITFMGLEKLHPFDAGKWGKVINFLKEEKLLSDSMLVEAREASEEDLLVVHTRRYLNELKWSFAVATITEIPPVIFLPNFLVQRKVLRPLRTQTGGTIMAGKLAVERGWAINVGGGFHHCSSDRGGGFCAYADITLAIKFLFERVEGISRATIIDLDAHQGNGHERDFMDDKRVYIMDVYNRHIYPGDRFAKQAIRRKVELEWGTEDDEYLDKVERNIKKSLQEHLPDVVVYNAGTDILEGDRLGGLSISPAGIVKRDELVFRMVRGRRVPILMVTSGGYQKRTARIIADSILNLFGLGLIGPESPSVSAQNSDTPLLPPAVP
The experiment is described as above.

The next experiment relates to colorectal cancer tumor. In words: Another batch: HDAC inhibitors (PCI-34051, elevenostat, ABT-301) with or without RMP1-14 in tumor-bearing mice. The class given is in vivo, mouse. As to conditions: another batch of experiments, data not shown; compared to vehicle group or to other combinations.

Bounds are passed on as bounds.

UniProt Q9UKV0, sequence (Q9UKV0 whole entry): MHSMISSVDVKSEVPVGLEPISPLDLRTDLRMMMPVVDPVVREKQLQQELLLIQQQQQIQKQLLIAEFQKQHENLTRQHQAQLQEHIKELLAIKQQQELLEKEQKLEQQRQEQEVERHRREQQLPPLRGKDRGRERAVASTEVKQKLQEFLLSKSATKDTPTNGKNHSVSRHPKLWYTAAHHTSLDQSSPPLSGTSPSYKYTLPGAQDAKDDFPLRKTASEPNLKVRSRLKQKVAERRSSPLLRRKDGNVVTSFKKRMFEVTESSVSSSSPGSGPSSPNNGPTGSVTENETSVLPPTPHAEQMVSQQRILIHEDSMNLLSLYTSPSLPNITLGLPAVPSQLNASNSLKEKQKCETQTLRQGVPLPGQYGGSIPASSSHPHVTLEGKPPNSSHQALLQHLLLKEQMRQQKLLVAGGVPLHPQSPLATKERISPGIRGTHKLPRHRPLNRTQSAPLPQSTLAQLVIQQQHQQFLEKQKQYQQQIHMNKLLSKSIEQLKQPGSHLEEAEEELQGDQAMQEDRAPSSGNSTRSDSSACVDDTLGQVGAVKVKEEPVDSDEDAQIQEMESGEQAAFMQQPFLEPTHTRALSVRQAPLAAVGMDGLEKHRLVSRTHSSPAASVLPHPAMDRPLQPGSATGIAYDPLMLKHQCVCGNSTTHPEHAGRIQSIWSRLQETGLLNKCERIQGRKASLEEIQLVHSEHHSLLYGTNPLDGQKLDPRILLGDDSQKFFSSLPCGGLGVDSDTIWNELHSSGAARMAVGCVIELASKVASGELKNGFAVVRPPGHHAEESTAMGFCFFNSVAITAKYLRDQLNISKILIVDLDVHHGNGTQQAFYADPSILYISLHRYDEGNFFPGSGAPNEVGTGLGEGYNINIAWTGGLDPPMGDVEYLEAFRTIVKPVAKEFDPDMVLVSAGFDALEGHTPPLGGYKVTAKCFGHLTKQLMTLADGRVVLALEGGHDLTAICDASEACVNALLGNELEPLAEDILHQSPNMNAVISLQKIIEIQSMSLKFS
UniProt Q92769, sequence (Q92769 whole entry): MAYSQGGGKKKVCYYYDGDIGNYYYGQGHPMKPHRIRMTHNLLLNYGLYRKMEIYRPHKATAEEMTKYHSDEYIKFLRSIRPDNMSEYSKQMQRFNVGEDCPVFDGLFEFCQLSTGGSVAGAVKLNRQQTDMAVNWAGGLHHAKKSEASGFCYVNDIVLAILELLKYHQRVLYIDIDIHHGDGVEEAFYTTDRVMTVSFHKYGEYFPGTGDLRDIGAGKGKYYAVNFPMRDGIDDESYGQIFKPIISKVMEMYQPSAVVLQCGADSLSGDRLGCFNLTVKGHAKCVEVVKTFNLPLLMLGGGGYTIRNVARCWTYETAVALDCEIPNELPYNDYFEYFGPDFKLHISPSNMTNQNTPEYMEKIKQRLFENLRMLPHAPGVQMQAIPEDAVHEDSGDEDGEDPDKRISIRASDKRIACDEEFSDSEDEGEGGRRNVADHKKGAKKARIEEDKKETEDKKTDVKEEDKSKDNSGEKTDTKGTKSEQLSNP

A word on the IC50: it is the midpoint of a concentration-inhibition curve. `O=C(/C=C/c1ccc2c(c1)CCN2S(=O)(=O)c1ccccc1)NO` [ABT-301, (E)-N-hydroxy-3-(1-(phenylsulfonyl)-indolin-5-yl)-acrylamide]: in experiment [1] (ABT-301 25 mg/kg PO QD), the “number of mice exhibiting partial response (PR)” value was determined as 1. Moreover, the “number of mice exhibiting progressive disease (PD)” value is on record as 9 in experiment [1] (ABT-301 25 mg/kg PO QD) and 8 in experiment [1] (ABT-301 100 mg/kg PO QD). Also, the IC50 against HDAC7 is above 3000 nM; against HDAC9, above 3000 nM; at HDAC2, 93.2 nM; at HDAC11 it was 994 nM. For the same molecule, in the experiment with colorectal cancer tumor, the “response in the mice on the growth of tumor” value is given as “did not elicit a visible response”.

The values above are taken from patent publication US20240277663A1, “PHARMACEUTICAL KITS AND USES THEREOF FOR TREATING COLORECTAL CANCER” (priority 2023, published 2024).
